{
  "source": "the supplement of paper PMC3334620",
  "note": "In all, about 33,000 sequences were measured (“E-score (-0.5 to 0.5)”: median about -0.012, highest 2% from about 0.29 on). Some of the results follow.",
  "data": [
    {"molecular_target": "T1, Ybr033w (UniProt P38073)", "T1 sequence": "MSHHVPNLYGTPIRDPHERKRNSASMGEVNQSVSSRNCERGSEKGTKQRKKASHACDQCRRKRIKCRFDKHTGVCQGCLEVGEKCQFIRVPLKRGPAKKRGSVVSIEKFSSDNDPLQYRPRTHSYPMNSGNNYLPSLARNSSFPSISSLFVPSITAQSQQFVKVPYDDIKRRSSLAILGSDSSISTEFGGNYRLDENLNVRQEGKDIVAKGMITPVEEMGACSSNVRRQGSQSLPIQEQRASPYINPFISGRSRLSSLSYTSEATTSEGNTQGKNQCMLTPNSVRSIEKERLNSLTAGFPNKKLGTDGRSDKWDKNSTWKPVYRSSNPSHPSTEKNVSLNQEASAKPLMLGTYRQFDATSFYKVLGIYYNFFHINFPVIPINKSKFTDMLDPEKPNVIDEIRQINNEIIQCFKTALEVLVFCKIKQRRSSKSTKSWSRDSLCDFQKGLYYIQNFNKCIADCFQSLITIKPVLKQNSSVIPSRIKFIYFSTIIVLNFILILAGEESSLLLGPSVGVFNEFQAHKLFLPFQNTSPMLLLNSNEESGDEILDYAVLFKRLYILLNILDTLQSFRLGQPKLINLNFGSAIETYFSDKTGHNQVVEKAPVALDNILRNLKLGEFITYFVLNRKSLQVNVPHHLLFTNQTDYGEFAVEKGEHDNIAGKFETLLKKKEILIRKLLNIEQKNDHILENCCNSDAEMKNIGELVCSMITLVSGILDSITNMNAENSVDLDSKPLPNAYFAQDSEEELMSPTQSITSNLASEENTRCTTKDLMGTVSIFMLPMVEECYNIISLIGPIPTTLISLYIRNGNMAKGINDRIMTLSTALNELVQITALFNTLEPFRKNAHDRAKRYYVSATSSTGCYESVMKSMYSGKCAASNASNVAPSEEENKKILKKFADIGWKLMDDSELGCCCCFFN", "test": "PBM E-score (8-mer binding enrichment) (E-score (-0.5 to 0.5)); higher = stronger / more preferred TF binding; most listed sequences are background and not binding sites", "settings": "protein concentration: 200 nM; construct: GST-full length", "method": "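Universal 'all 10-mer' protein binding microarrays (Agilent AMADID 015681) probed with GST-tagged S. cerevisiae TFs (full-length or DBD) made by in vitro transcription/translation (PURExpress), about 100-200 nM. Bound TF was detected with fluorescent anti-GST. Each ungapped 8-mer (which stands for itself and its reverse complement) is scored by the PBM enrichment score (E-score), a modified Wilcoxon-Mann-Whitney statistic from -0.5 to +0.5, computed with the Universal PBM Analysis Suite. Scale: above 0.35 generally sequence-specific binding.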", "values": [
      {"sequence": "CTAGGTAA", "PBM E-score": 0.015},
      {"sequence": "AACTTGTC", "PBM E-score": 0.124},
      {"sequence": "CAGTAGCG", "PBM E-score": -0.0386},
      {"sequence": "TAACTCGA", "PBM E-score": 0.183},
      {"sequence": "ACACGTGA", "PBM E-score": 0.0286},
      {"sequence": "AAAGGAGT", "PBM E-score": 0.00926},
      {"sequence": "ACCTGGTG", "PBM E-score": -0.101},
      {"sequence": "GATGTACA", "PBM E-score": 0.0996},
      {"sequence": "GACTGAAC", "PBM E-score": -0.217},
      {"sequence": "CGTCAGGA", "PBM E-score": 0.00965},
      {"sequence": "AATCGCGG", "PBM E-score": 0.0607},
      {"sequence": "GGTCCAAC", "PBM E-score": -0.192},
      {"sequence": "CACCTGCC", "PBM E-score": -0.159},
      {"sequence": "ACAGAATC", "PBM E-score": -0.0758},
      {"sequence": "AGATGTAT", "PBM E-score": 0.176},
      {"sequence": "AATGGATA", "PBM E-score": 0.0899},
      {"sequence": "GATGACAC", "PBM E-score": -0.192},
      {"sequence": "CAACGATG", "PBM E-score": -0.0442},
      {"sequence": "AACTTTCG", "PBM E-score": 0.0707},
      {"sequence": "ACGCCCGC", "PBM E-score": -0.256},
      {"sequence": "GTTCAGCA", "PBM E-score": -0.0295},
      {"sequence": "GTGGGCCA", "PBM E-score": -0.116},
      {"sequence": "CATCGTCA", "PBM E-score": 0.0638},
      {"sequence": "AGGAAAAG", "PBM E-score": 0.038},
      {"sequence": "CCCTCTGA", "PBM E-score": -0.196},
      {"sequence": "GTCTGTCA", "PBM E-score": -0.0435},
      {"sequence": "ATCGAGGC", "PBM E-score": -0.159},
      {"sequence": "CCCTTTAC", "PBM E-score": -0.152},
      {"sequence": "AAAAAGTA", "PBM E-score": 0.283},
      {"sequence": "AACAGTAA", "PBM E-score": 0.173},
      {"sequence": "AATCTGCG", "PBM E-score": -0.0804},
      {"sequence": "ACTAGAGT", "PBM E-score": 0.0751},
      {"sequence": "ACAGCTCT", "PBM E-score": -0.291},
      {"sequence": "CTCTAGAG", "PBM E-score": -0.142},
      {"sequence": "ACTGTTAA", "PBM E-score": 0.16},
      {"sequence": "CATTAGGA", "PBM E-score": 0.0409},
      {"sequence": "TATTAAAA", "PBM E-score": 0.312},
      {"sequence": "GAAGACTC", "PBM E-score": -0.0221},
      {"sequence": "GGTCGTAC", "PBM E-score": -0.0313},
      {"sequence": "GGGTGGAA", "PBM E-score": -0.134},
      {"sequence": "ACCGCGGT", "PBM E-score": 0.0405},
      {"sequence": "AGGTAGAT", "PBM E-score": -0.143},
      {"sequence": "ATATATCC", "PBM E-score": 0.372},
      {"sequence": "CCCTTCCG", "PBM E-score": -0.092},
      {"sequence": "TACCAGTA", "PBM E-score": 0.00281},
      {"sequence": "ATATCGGC", "PBM E-score": -0.0651},
      {"sequence": "CTATCCTC", "PBM E-score": 0.0453},
      {"sequence": "GGAAGTAC", "PBM E-score": -0.0324},
      {"sequence": "GTGCTGAA", "PBM E-score": 0.057},
      {"sequence": "ACCGACGA", "PBM E-score": -0.172},
      {"sequence": "GTCCCGAC", "PBM E-score": -0.119},
      {"sequence": "CAAGGTTC", "PBM E-score": -0.204},
      {"sequence": "CCCAACTC", "PBM E-score": 0.155},
      {"sequence": "GACAAGAA", "PBM E-score": 0.205},
      {"sequence": "AAAACCTT", "PBM E-score": -0.00181},
      {"sequence": "CATGGGCC", "PBM E-score": -0.228},
      {"sequence": "GACGTCGC", "PBM E-score": -0.227},
      {"sequence": "ACGCATTG", "PBM E-score": -0.0453},
      {"sequence": "CTGCAAAA", "PBM E-score": 0.022},
      {"sequence": "CGCCAGAG", "PBM E-score": -0.045},
      {"sequence": "ATTAGAAT", "PBM E-score": 0.225},
      {"sequence": "AACGCGAT", "PBM E-score": 0.0217},
      {"sequence": "ATTACAGC", "PBM E-score": -0.21},
      {"sequence": "CCGAGATC", "PBM E-score": -0.155},
      {"sequence": "CAGAACCA", "PBM E-score": -0.0489},
      {"sequence": "AAAAGATG", "PBM E-score": 0.193},
      {"sequence": "GATCGTAA", "PBM E-score": 0.0355},
      {"sequence": "CATTTCGA", "PBM E-score": 0.174},
      {"sequence": "GAGCGGGA", "PBM E-score": -0.0612},
      {"sequence": "TCATTGAA", "PBM E-score": -0.00324},
      {"sequence": "CTGGAATC", "PBM E-score": -0.00413},
      {"sequence": "GGGCACAC", "PBM E-score": -0.123},
      {"sequence": "CACAGGCC", "PBM E-score": -0.283},
      {"sequence": "AAGCCAAA", "PBM E-score": 0.107},
      {"sequence": "ACGTTGAG", "PBM E-score": 0.00985},
      {"sequence": "AACTATGC", "PBM E-score": 0.155},
      {"sequence": "CTTTAACC", "PBM E-score": 0.0112},
      {"sequence": "CCGGAAGG", "PBM E-score": 0.0448},
      {"sequence": "TAGAATAA", "PBM E-score": 0.205},
      {"sequence": "ATAAACTG", "PBM E-score": 0.266},
      {"sequence": "CATAGCCC", "PBM E-score": -0.144},
      {"sequence": "AAATTATA", "PBM E-score": 0.215},
      {"sequence": "CATCTGGC", "PBM E-score": -0.12},
      {"sequence": "CTCAGTAA", "PBM E-score": 0.148},
      {"sequence": "CTGGCCGC", "PBM E-score": -0.0871},
      {"sequence": "GAATAAGA", "PBM E-score": 0.0352}
    ]}
  ]
}
